Assay results as given in patent US5888763, “Peptides specific for the first Crk-SH3 domain” (The Rockefeller University, dated 1999).

Target: gst-c-CrkSH3(1) (Example 2) (murine, UniProt Q64010)
Assay: filter binding of 35S-gst-CrkSH3(1) to blotted gst-fusion peptides

B1: gst-4-12 (9 amino acid gst-fusion peptide of CB-1) (other)
chain: not shown
- binding result: binds
